Out of some 420,000 compounds screened, about 64,000 (15%) were called active. Inconclusive means that the source gave no clear call. Such entries were picked first, then a sample of the others. Calls come from the whole dose curve; as a rule, active = well fitted inhibition curve with a large enough effect; inconclusive = small, poorly fitted or top-dose-only effect; inactive = flat fitted curve, though single readings scatter. Potencies of inconclusive entries are left out as doubtful fits.
Assay: qHTS for Inhibitors of human tyrosyl-DNA phosphodiesterase 1 (TDP1): qHTS in cells in absence of CPT; note: nearly all actives have a fitted effect of over 55% in size
Settings: DT40 Tdp1-/- hTDP1 cells, no CPT, ATP luminescence, 48 h; series mostly up to 46.2 µM
How it was run: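 No-CPT arm: Tdp1-/-;hTDP1 DT40 cells (400/well) plus compounds, incubated ≥48 hr at 37 °C. Readout CellTiter-Glo luminescence.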
Potency is the fitted concentration of half-maximal effect; tags give direction and shape of the fitted curve.

| SMILES | Potency |
| --- | --- |
| Cc1cccc(C2(c3cccc(C)c3)OC(=O)c3ccccc32)c1 | inconclusive [inhibitor, single point] |
| CCOc1ccc(-c2csc3nc[nH]c(=O)c23)cc1 | inactive |
| CN1CCN(c2ccnc(N(C)CCCCCCN)n2)CC1 | inconclusive [inhibitor, single point] |
| CCC(NC(=O)c1cc(COc2cc(C)c(Cl)c(C)c2)on1)c1ccncc1 (stereo not drawn) | active: 20.6 µM |
| CCN(CC)S(=O)(=O)c1ccc(CNC(=O)CN2C(=O)NC3(CCc4ccccc43)C2=O)cc1 (stereo not drawn) | inconclusive [inhibitor, single point] |
| COc1ccc(Cl)cc1N(C)C(=O)CCc1nc(-c2ccc(C)cc2)no1 | active: 23.1 µM |
| Cc1ccc(C(=O)Nc2cccc3[nH]c(C(F)(F)F)nc23)cc1 | inconclusive [inhibitor, single point] |
| O=C(C1CCCN(c2nnc(-n3cccc3)s2)C1)N1CCN(c2ccccc2)CC1 (stereo not drawn) | inconclusive [inhibitor, full curve, poor fit] |
| CCCCc1ccc(NC(=O)CSc2nc(=O)[nH]c3c2CCCC3)cc1 | inconclusive [inhibitor, single point] |
| CN1CCN(S(=O)(=O)c2ccc(N3CCN(S(=O)(=O)c4cccs4)CC3)nc2)CC1 | inconclusive [inhibitor, single point] |
| COC(=O)c1cc(-c2ccc(OC)cc2)n[nH]1 | inactive |
| Cc1cc(Oc2ccc(Cl)cc2)nc(-c2ccccn2)n1 | active: 5.17 µM |
| CCc1ccc(NC(=O)C2C3CCC(O3)C2C(=O)O)cc1 (stereo not drawn) | inactive |
| O=C(/C=C/c1cccs1)NC(=S)NNC(=O)c1ccccc1O | active: 4.61 µM |
| O=C(COc1ccc(Cl)cc1)N(Cc1ccccc1)c1nc(-c2ccccc2)cs1 | active: 25.9 µM |
| CC(C)C[C@H]1CN([C@@H](CC(C)C)CN2CCC[C@H]2CN2C(=O)C(=O)NC[C@@H]2Cc2ccc(O)cc2)C(=O)C(=O)N1CCc1ccccc1 | inconclusive [inhibitor, single point] |
| CCN(CC)C(=O)[C@H]1C[C@H](CC(=O)NCCCn2ccnc2)C(=O)N2CCc3c([nH]c4cc(CCC(=O)N(C)C)ccc34)[C@]12C | inactive |
| Cn1nnnc1SCC(=O)N1CCN(C(c2ccccc2)c2ccccc2)CC1 | inconclusive [inhibitor, single point] |
| O=C(C[n+]1ccncc1)c1ccc(Br)cc1 | inconclusive [inhibitor, single point] |
| CCOc1ccc(S(=O)(=O)N2CCN(Cc3nc4ccc(C)cc4o3)CC2)cc1 | inconclusive [inhibitor, single point] |
| COc1cccc(Cn2nnc(C(=O)NCCc3ccc(Cl)cc3)c2N)c1 | inconclusive [inhibitor, full curve, poor fit] |
| COC(=O)CCN(c1ccccc1)C(CNS(=O)(=O)c1ccccc1)c1ccccc1 (stereo not drawn) | inconclusive [inhibitor, single point] |

| SMILES | Potency |
| --- | --- |
| Cc1cc(C)c(C)c(S(=O)(=O)NCC(=O)NCC2CCCCC2)c1C | inconclusive [inhibitor, single point] |
| COc1ccc(Nc2oc(/C=C/c3ccccc3OC)nc2C#N)cc1 | inconclusive [inhibitor, single point] |
| CCOc1ccc(CCNC(=O)Cn2c(-c3cccs3)cc3ccccc32)cc1OCC | inconclusive [inhibitor, single point] |
| COc1cccc(C2c3[nH]c4ccccc4c3CCN2Cc2cccn2-c2ncccn2)c1 (stereo not drawn) | inconclusive [inhibitor, single point] |
| O=C1CCN(CCc2ccccc2)CCN1[C@H](COc1ccccc1)Cc1ccccc1 | active: 11.2 µM |
| Cc1ccc(C)c(NC(=O)CSc2ccc3nc(-c4ccccc4)cn3n2)c1 | inconclusive [inhibitor, single point] |
| COc1cccc(-c2ncc3ccccc3c2COC(=O)c2ccco2)c1 | inconclusive [inhibitor, single point] |
| Cc1ccccc1OCC(O)CN1CCN(CCN2C(=O)c3cccc4cccc(c34)C2=O)CC1 (stereo not drawn) | inconclusive [inhibitor, single point] |
| Cc1ccc(CNc2ccc3nnc(-c4ccccc4)n3n2)cc1 | active: 2.31 µM |
| C=CC(n1cncn1)C(O)(c1ccccc1)c1ccccc1 (stereo not drawn) | inactive |
| Cc1cc(C)c(NC(=O)CN(C)C(=O)C2CC(=O)N(c3cccc4ccccc34)C2)c(C)c1 (stereo not drawn) | inactive |
| CCOC(=O)c1cnc(SC)nc1Nc1cccc2ccccc12 | inconclusive [inhibitor, partial curve] |
| COc1ccc(C)cc1NC(=O)CCCN1C(=S)NC(C)(C)CC1C (stereo not drawn) | inconclusive [inhibitor, single point] |
| Cc1cc2nc(-c3ccc(NC(=O)c4cccnc4)cc3)oc2cc1C | inconclusive [inhibitor, full curve] |
| Cc1ccc(C)c(Nc2nc3ccccc3n3cnnc23)c1 | inconclusive [inhibitor, partial curve, poor fit] |
| COc1ccc(OC)c(NC(=O)C(=O)NCc2ccncc2)c1 | inactive |
| COc1ccc(N=C2SC(CC(=O)Nc3ccccc3)C(=O)N2CCc2ccccn2)cc1 (stereo not drawn) | inconclusive [inhibitor, single point] |
| Cc1nc2cc(-c3cccc(F)c3)nn2c(C)c1CCC(=O)NC(C)c1ccccc1 (stereo not drawn) | inconclusive [inhibitor, single point] |
| CC1CCC(NC(=O)CSc2ccc(S(=O)(=O)N(C)C)cn2)CC1 (stereo not drawn) | inconclusive [inhibitor, single point] |
| N#CCC(=O)N/N=C/c1cn(Cc2ccc(Cl)c(Cl)c2)c2ccccc12 | inconclusive [inhibitor, single point] |
| COc1cccc(S(=O)(=O)N(C)C[C@H]2Oc3ncc(Br)cc3C(=O)N([C@H](C)CO)C[C@H]2C)c1 | inconclusive [inhibitor, single point] |

Source: PubChem BioAssay AID686978 (National Center for Advancing Translational Sciences (NCATS), 2013)
